{"source": "the supplement of paper PMC8728848", "binders": {"B1": {"name": "MIC4-A5 (Toxoplasma gondii), Q9XZH7 (protein)", "chain": "SPDFHDEVECVHTGNIGSKAQTIGEVKRASSLSECRARCQAEKECSHYTYNVKSGLCYPKRGKPQFYKYLGDMTGSRTCDTS"}}, "assay_in_all_cases": "glycan array binding signal (z-score within array); higher = stronger binding", "conditions_in_all_cases": "glycan notation: IUPAC condensed, linker removed", "key": {"[1]": {"target": "Glc(b1-3)Glc(b1-3)Glc(b1-3)Glc(b1-3)Glc(b1-3)Glc(b1-3)Glc(b1-3)Glc(b1-3)Glc(b1-3)Glc(b1-3)Glc(b1-3)Glc", "summary_of_the_method": "(§1)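 From the Consortium for Functional Glycomics database, 3228 arrays were curated, keeping only those whose protein sequence was available. Binding is given as a within-array Z-score averaged across arrays sharing a protein sequence and across linkers. Negative Z-scores can be read as non-binding.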"}, "[2]": {"target": "Glc(b1-3)Glc(b1-3)Glc(b1-3)Glc(b1-3)Glc(b1-3)Glc(b1-3)Glc(b1-3)Glc(b1-3)Glc(b1-3)Glc(b1-3)Glc(b1-3)Glc(b1-3)Glc", "summary_of_the_method": "as §1"}, "Glc(b1-4)Glc": {"target": "Glc(b1-4)Glc", "summary_of_the_method": "as §1"}, "Glc(b1-4)Glc(b1-4)Glc": {"target": "Glc(b1-4)Glc(b1-4)Glc", "summary_of_the_method": "as §1"}, "[3]": {"target": "Glc(b1-4)Glc(b1-4)Glc(b1-4)Glc", "summary_of_the_method": "as §1"}, "[4]": {"target": "Glc(b1-4)Glc(b1-4)Glc(b1-4)Glc(b1-4)Glc", "summary_of_the_method": "as §1"}, "[5]": {"target": "Glc(b1-4)Glc(b1-4)Glc(b1-4)Glc(b1-4)Glc(b1-4)Glc", "summary_of_the_method": "as §1"}, "[6]": {"target": "Glc(b1-4)Glc(b1-4)Glc(b1-4)Glc(b1-4)Glc(b1-4)Glc(b1-4)Glc", "summary_of_the_method": "as §1"}, "[7]": {"target": "Glc(b1-4)Glc(b1-4)Glc(b1-4)Glc(b1-4)Glc(b1-4)Glc(b1-4)Glc(b1-4)Glc", "summary_of_the_method": "as §1"}, "[8]": {"target": "Glc(b1-4)Glc(b1-4)Glc(b1-4)Glc(b1-4)Glc(b1-4)Glc(b1-4)Glc(b1-4)Glc(b1-4)Glc", "summary_of_the_method": "as §1"}, "[9]": {"target": "Glc(b1-4)Glc(b1-4)Glc(b1-4)Glc(b1-4)Glc(b1-4)Glc(b1-4)Glc(b1-4)Glc(b1-4)Glc(b1-4)Glc", "summary_of_the_method": "as §1"}, "[10]": {"target": "Glc(b1-4)Glc(b1-4)Glc(b1-4)Glc(b1-4)Glc(b1-4)Glc(b1-4)Glc(b1-4)Glc(b1-4)Glc(b1-4)Glc(b1-4)Glc", "summary_of_the_method": "as §1"}, "[11]": {"target": "Glc(b1-4)Glc(b1-4)Glc(b1-4)Glc(b1-4)Glc(b1-4)Glc(b1-4)Glc(b1-4)Glc(b1-4)Glc(b1-4)Glc(b1-4)Glc(b1-4)Glc", "summary_of_the_method": "as §1"}, "[12]": {"target": "Glc(b1-4)Glc(b1-4)Glc(b1-4)Glc(b1-4)Glc(b1-4)Glc(b1-4)Glc(b1-4)Glc(b1-4)Glc(b1-4)Glc(b1-4)Glc(b1-4)Glc(b1-4)Glc", "summary_of_the_method": "as §1"}, "Glc(b1-6)Glc": {"target": "Glc(b1-6)Glc", "summary_of_the_method": "as §1"}, "Glc(b1-6)Glc(b1-6)Glc": {"target": "Glc(b1-6)Glc(b1-6)Glc", "summary_of_the_method": "as §1"}, "[13]": {"target": "Glc(b1-6)Glc(b1-6)Glc(b1-6)Glc", "summary_of_the_method": "as §1"}, "[14]": {"target": "Glc(b1-6)Glc(b1-6)Glc(b1-6)Glc(b1-6)Glc", "summary_of_the_method": "as §1"}, "[15]": {"target": "Glc(b1-6)Glc(b1-6)Glc(b1-6)Glc(b1-6)Glc(b1-6)Glc", "summary_of_the_method": "as §1"}, "[16]": {"target": "Glc(b1-6)Glc(b1-6)Glc(b1-6)Glc(b1-6)Glc(b1-6)Glc(b1-6)Glc", "summary_of_the_method": "as §1"}, "[17]": {"target": "Glc(b1-6)Glc(b1-6)Glc(b1-6)Glc(b1-6)Glc(b1-6)Glc(b1-6)Glc(b1-6)Glc", "summary_of_the_method": "as §1"}, "[18]": {"target": "Glc(b1-6)Glc(b1-6)Glc(b1-6)Glc(b1-6)Glc(b1-6)Glc(b1-6)Glc(b1-6)Glc(b1-6)Glc", "summary_of_the_method": "as §1"}, "[19]": {"target": "Glc(b1-6)Glc(b1-6)Glc(b1-6)Glc(b1-6)Glc(b1-6)Glc(b1-6)Glc(b1-6)Glc(b1-6)Glc(b1-6)Glc", "summary_of_the_method": "as §1"}, "[20]": {"target": "Glc(b1-6)Glc(b1-6)Glc(b1-6)Glc(b1-6)Glc(b1-6)Glc(b1-6)Glc(b1-6)Glc(b1-6)Glc(b1-6)Glc(b1-6)Glc", "summary_of_the_method": "as §1"}, "[21]": {"target": "Glc(b1-6)Glc(b1-6)Glc(b1-6)Glc(b1-6)Glc(b1-6)Glc(b1-6)Glc(b1-6)Glc(b1-6)Glc(b1-6)Glc(b1-6)Glc(b1-6)Glc", "summary_of_the_method": "as §1"}, "[22]": {"target": "Glc(b1-6)Glc(b1-6)Glc(b1-6)Glc(b1-6)Glc(b1-6)Glc(b1-6)Glc(b1-6)Glc(b1-6)Glc(b1-6)Glc(b1-6)Glc(b1-6)Glc(b1-6)Glc", "summary_of_the_method": "as §1"}, "GlcA(b1-3)Gal": {"target": "GlcA(b1-3)Gal", "summary_of_the_method": "as §1"}, "[23]": {"target": "GlcA(b1-3)Gal(b1-3)GlcNAc", "summary_of_the_method": "as §1"}, "[24]": {"target": "GlcA(b1-3)Gal(b1-4)GlcNAc(b1-3)Gal(b1-4)Glc", "summary_of_the_method": "as §1"}, "[25]": {"target": "GlcA(b1-3)Gal(b1-4)GlcNAc(b1-3)Gal(b1-4)GlcNAc(b1-3)Gal(b1-4)Glc", "summary_of_the_method": "as §1"}, "[26]": {"target": "GlcA(b1-3)GlcNAc(b1-4)GlcA(b1-3)GlcNAc", "summary_of_the_method": "as §1"}, "[27]": {"target": "GlcA(b1-3)GlcNAc(b1-4)GlcA(b1-3)GlcNAc(b1-4)GlcA(b1-3)GlcNAc(b1-4)GlcA(b1-3)GlcNAc(b1-4)GlcA(b1-3)GlcNAc(b1-4)GlcA(b1-3)GlcNAc(b1-4)GlcA(b1-3)GlcNAc", "summary_of_the_method": "as §1"}, "[28]": {"target": "GlcA(b1-4)GlcNAc(a1-4)GlcA(b1-4)2,5-Anhydro-Man", "summary_of_the_method": "as §1"}, "[29]": {"target": "GlcA(b1-4)GlcNAc(a1-4)GlcA(b1-4)GlcNAc(a1-4)GlcA(b1-4)GlcNAc(a1-4)GlcA(b1-4)2,5-Anhydro-Man", "summary_of_the_method": "as §1"}, "GlcA3S(b1-3)Gal": {"target": "GlcA3S(b1-3)Gal", "summary_of_the_method": "as §1"}, "[30]": {"target": "GlcA3S(b1-3)Gal(b1-4)GlcNAc(b1-3)Gal(b1-4)Glc", "summary_of_the_method": "as §1"}, "[31]": {"target": "GlcA3S(b1-3)Gal(b1-4)GlcNAc(b1-3)Gal(b1-4)GlcNAc(b1-3)Gal(b1-4)Glc", "summary_of_the_method": "as §1"}, "GlcNAc(a1-4)Gal": {"target": "GlcNAc(a1-4)Gal", "summary_of_the_method": "as §1"}, "[32]": {"target": "GlcNAc(a1-4)Gal(b1-3)[Fuc(a1-2)]Gal", "summary_of_the_method": "as §1"}, "GlcNAc(b1-2)Fuc": {"target": "GlcNAc(b1-2)Fuc", "summary_of_the_method": "as §1"}, "GlcNAc(b1-2)Man": {"target": "GlcNAc(b1-2)Man", "summary_of_the_method": "as §1"}, "[33]": {"target": "GlcNAc(b1-2)Man(a1-3)[GlcNAc(b1-2)Man(a1-6)]Man", "summary_of_the_method": "as §1"}, "[34]": {"target": "GlcNAc(b1-2)Man(a1-3)[GlcNAc(b1-2)Man(a1-6)]Man(b1-4)GlcNAc(b1-4)GlcNAc", "summary_of_the_method": "as §1"}, "[35]": {"target": "GlcNAc(b1-2)Man(a1-3)[GlcNAc(b1-2)Man(a1-6)]Man(b1-4)GlcNAc(b1-4)[Fuc(a1-6)]GlcNAc", "summary_of_the_method": "as §1"}, "[36]": {"target": "GlcNAc(b1-2)Man(a1-3)[GlcNAc(b1-2)Man(a1-6)][GlcNAc(b1-4)]Man(b1-4)GlcNAc(b1-4)GlcNAc", "summary_of_the_method": "as §1"}}, "note": "This is one part of the list."}
{"binder": "B1", "values": [{"measurement": "glycan array binding signal (z-score)", "setting": "[1]", "value": -0.323}, {"measurement": "glycan array binding signal (z-score)", "setting": "[2]", "value": -0.323}, {"measurement": "glycan array binding signal (z-score)", "setting": "Glc(b1-4)Glc", "value": -0.312}, {"measurement": "glycan array binding signal (z-score)", "setting": "Glc(b1-4)Glc(b1-4)Glc", "value": -0.323}, {"measurement": "glycan array binding signal (z-score)", "setting": "[3]", "value": -0.323}, {"measurement": "glycan array binding signal (z-score)", "setting": "[4]", "value": -0.323}, {"measurement": "glycan array binding signal (z-score)", "setting": "[5]", "value": -0.323}, {"measurement": "glycan array binding signal (z-score)", "setting": "[6]", "value": -0.323}, {"measurement": "glycan array binding signal (z-score)", "setting": "[7]", "value": -0.323}, {"measurement": "glycan array binding signal (z-score)", "setting": "[8]", "value": -0.323}, {"measurement": "glycan array binding signal (z-score)", "setting": "[9]", "value": -0.323}, {"measurement": "glycan array binding signal (z-score)", "setting": "[10]", "value": -0.323}, {"measurement": "glycan array binding signal (z-score)", "setting": "[11]", "value": -0.323}, {"measurement": "glycan array binding signal (z-score)", "setting": "[12]", "value": -0.323}, {"measurement": "glycan array binding signal (z-score)", "setting": "Glc(b1-6)Glc", "value": -0.308}, {"measurement": "glycan array binding signal (z-score)", "setting": "Glc(b1-6)Glc(b1-6)Glc", "value": -0.314}, {"measurement": "glycan array binding signal (z-score)", "setting": "[13]", "value": -0.323}, {"measurement": "glycan array binding signal (z-score)", "setting": "[14]", "value": -0.323}, {"measurement": "glycan array binding signal (z-score)", "setting": "[15]", "value": -0.323}, {"measurement": "glycan array binding signal (z-score)", "setting": "[16]", "value": -0.323}, {"measurement": "glycan array binding signal (z-score)", "setting": "[17]", "value": -0.323}, {"measurement": "glycan array binding signal (z-score)", "setting": "[18]", "value": -0.323}, {"measurement": "glycan array binding signal (z-score)", "setting": "[19]", "value": -0.323}, {"measurement": "glycan array binding signal (z-score)", "setting": "[20]", "value": -0.323}, {"measurement": "glycan array binding signal (z-score)", "setting": "[21]", "value": -0.323}, {"measurement": "glycan array binding signal (z-score)", "setting": "[22]", "value": -0.323}, {"measurement": "glycan array binding signal (z-score)", "setting": "GlcA(b1-3)Gal", "value": -0.323}, {"measurement": "glycan array binding signal (z-score)", "setting": "[23]", "value": -0.323}, {"measurement": "glycan array binding signal (z-score)", "setting": "[24]", "value": -0.323}, {"measurement": "glycan array binding signal (z-score)", "setting": "[25]", "value": -0.323}, {"measurement": "glycan array binding signal (z-score)", "setting": "[26]", "value": -0.323}, {"measurement": "glycan array binding signal (z-score)", "setting": "[27]", "value": -0.323}, {"measurement": "glycan array binding signal (z-score)", "setting": "[28]", "value": -0.323}, {"measurement": "glycan array binding signal (z-score)", "setting": "[29]", "value": -0.323}, {"measurement": "glycan array binding signal (z-score)", "setting": "GlcA3S(b1-3)Gal", "value": -0.323}, {"measurement": "glycan array binding signal (z-score)", "setting": "[30]", "value": -0.323}, {"measurement": "glycan array binding signal (z-score)", "setting": "[31]", "value": -0.323}, {"measurement": "glycan array binding signal (z-score)", "setting": "GlcNAc(a1-4)Gal", "value": -0.323}, {"measurement": "glycan array binding signal (z-score)", "setting": "[32]", "value": -0.319}, {"measurement": "glycan array binding signal (z-score)", "setting": "GlcNAc(b1-2)Fuc", "value": -0.323}, {"measurement": "glycan array binding signal (z-score)", "setting": "GlcNAc(b1-2)Man", "value": -0.323}, {"measurement": "glycan array binding signal (z-score)", "setting": "[33]", "value": -0.323}, {"measurement": "glycan array binding signal (z-score)", "setting": "[34]", "value": -0.321}, {"measurement": "glycan array binding signal (z-score)", "setting": "[35]", "value": -0.323}, {"measurement": "glycan array binding signal (z-score)", "setting": "[36]", "value": -0.321}]}
